Data reported in the supplement of paper PMC11383711.
Some of the results follow. Binding of human antibodies (heavy:light variable regions, tested as scFv in one mRNA-display pool) to influenza hemagglutinin, with or without the stem antibody CR9114 bound first. Score = (mean enrichment − median) / interquartile range of that screen; higher = more enriched, 0 = typical non-binder. Active = above the paper's cut-off per screen: stems 28; unblocked H1 Solomon Islands 5, H1 Michigan 3, H3 5, H5 19, H7 2.85, both B 5; blocked 9, 7, H5 10, H7 10, B Phuket 10, B Lee 11.5. Scores are scaled within each screen and are no affinities; replicates correlate at about 0.6 to 0.9, and antibodies rare in the pool are noisier.

B1: 045-09-1G05 (protein)
chain 1: QVQLQESGPGLVKPSQTLSLTCAVSGDSISSGIYFWSWIRQPPGQGLEWIGRVFKTGTTDYNTSLKSRVTISVDTSKNQFSLKVSSATAADTALYYCARETPADRPYCGSGSCSFDSWGQGILVTVSS
chain 2: DIQMTQSPSSLSASVGDRVTITCRASQNINNNLNWYQQKSGKAPKFLIYAASHLQDGVPSRFSGGGSGTDFTLTIASLQPEDFATYYCQQSFTTLGSTFGQGTKVEIK
B2: R95-1E04 (protein)
chain 1: EVQLVESGGGLVQPGRSLRLSCAASGFSFVDYDMHWVRQAPGKGLEWVSSIRWNSGGIAYADSVKGRFTISRDNAKNSLYLQMNSLRAEDTAFYYCARTEAATVFGDHYSYYYYMDVWGKGTTVTVSS
chain 2: DIVMTQSPDSLAVSLGERATINCKSSQSLFYNSNNKNYFAWYQQKPGQPPKLLIYWASTRESGVPDRFSGSGSGTDFTLTISSLQAEDVAVYYCQQYYTTPLTFGGGTKVEIK
B3: SFV015-1F04 (protein)
chain 1: QVQLVESGGGVVQPGRSLRLSCTASGIIFSNYAMHWVRQAPGKGLEWVAVISYDGYIPYYTDSVQGRFIISRDNSKNTLYLEMNSLRAEDTAFYFCARDKYRDGDRLDYYYYMDLWGQGTTVTVSS
chain 2: EIVLTQSPVTLSLSPGERATLSCRASQSVSNYLAWYQQTPGQPPRLLIYDASHRATGIPTRFSGAVSGTDFTLTISSLEPEDFAVYYCQLRSNWPPLFTFGPGTKVDIK
B4: 042-10-4C01 (protein)
chain 1: QVQLVESGGGVVQPGRSLRLSCPASGFSFTTYGMHWVRQAPGKGLEWVAVISYDGRHQYYGDSVKGRFSISRDKSKNILFLQMNSLRAEDTAVYYCARDFTGYFGMDVWGQGTTVTVSS
chain 2: QSVLTQPPSASATPGQRVTISCSGSSSNVGKASVSWYRQLPGAAPKLLMYNTNQRPSGVPDRFSGSKSGTTASLAISGLQSEDEADYYCGAWDDSRNGFYVFGTGTKVTVL
B5: 01.h.02 (protein)
chain 1: EVQLLESGGGLVKRGGSLRLSCAASGFTFSAYGMSWVRQVPGGGLEWVSGVGGSGFGTDYADSVKGRFTISRDNSKNILYLQMNTLRAEDTAVYYCAKGVNWQPPYWYDYWGQGTLVTVSS
chain 2: DIVMTQDPVTLPVSLGERATIKCKSSQSVLSSSNNKNQLAWYQQRPGQPPKLLIYWASTRQSGVPERFSGSGSGTDFTLTVDVLLPEDVAVYYCQQYVSTPYTFGQGTKLEIK
B6: K77-2D02 (protein)
chain 1: EVQLVESGGGVVQPGGALRLSCAASGFTFSSYGMHWVRQAPGKGLEWVAYISYDGSEKTYADPLKGRFTIARDRSTNTLYLQMNRLRPEDTAVYHCARVKDSYYLEYWGQGTLVTVSS
chain 2: QSALTQPASVSGSPGQSITISCTGTSSDVGIYDLVSWYQQHPGKAPKLMIYEVNERPSGVSNRFSGSKSGNTASLTISGLQTEDEADYYCCSYAGSDTWVFGGGTKLT
B7: W85-2A08 (protein)
chain 1: EVQLVESGGGLVKPGESLTLSCAASQFAFRDYAMNWVRQAPGRGLEWVSCINGNSRYTYYADSVRGRFAISRDNAGETLYLQLNSLRAEDTALYYCARGSFGPGSYYTFEHYHMDVWGKGTTVTVSS
chain 2: QSALTQPASVSGSPGEAITISCTGSTSDIENYNSVSWYQQHPGQAPKLIIYDVTNRPSGVPLRFSGSKSGNTASLTISGLQAEDEADYSCSSYSSTTSLYVFGSGTKVT
B8: K77-1F06 (protein)
chain 1: QVLLVQSGPEVKKPGASVKVSCKASGYTFTASYMHWVRQAPGQGLEWMGVINPRHGNIAYAKKFLGRVTMTRDTSTSTVYMELTSLRSEDTAVYYCARDLREMDVPGPYGMDVWGQGTTVIVSS
chain 2: EIVLTQSPVTLSLSPGERATLSCRASQTISSSYLAWYQQKPGQAPRLLIYGTSSRATGIPDRFSGFGSGPDFTLTISRLESEDFAVYYCQQYGGSPPATFGQGTRVDIK

biological target: H1 HA stem construct (mini-HA #4900); experiment: mRNA display binding score; higher = more enriched on the antigen; conditions: antigen blocked with: nothing
Experimental: (§1)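 A pool of natively paired antibodies, displayed as scFv on mRNA, was selected once on antigen-coated beads and sequenced before and after; two replicates.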

Binder | mRNA display binding score
B1 | inactive: -0.595
B2 | inactive: -0.0534
B3 | inactive: 0.442
B4 | inactive: -0.353
B5 | inactive: -0.167
B6 | inactive: -1.13
B7 | inactive: -0.305
B8 | inactive: 0.0043

biological target: H3 HA stem construct (H3ssF); experiment: as above; conditions: antigen blocked with: nothing
Experimental: as §1

Binder | mRNA display binding score
B1 | inactive: 26.3
B2 | inactive: -0.0928
B3 | inactive: -0.0536
B4 | inactive: -0.601
B5 | active: 29
B6 | inactive: -0.659
B7 | inactive: -0.245
B8 | inactive: -0.512
